Measurements as given in PubChem BioAssay (NCI).
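Dose response: 5 concentrations. Exposure: 48 h. Format: 96-well plates. Endpoint: linear interpolation; highest concentration if not reached. Here, GI50 denotes the concentration required for 50% inhibition of growth. At the TGI there is no net growth.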

Tested on: NCI-H322M lung
Assay: DTP human tumour cell line panel, 48 h

SMILES | TGI [µM] | GI50 [µM]
CNC(=O)N(CCC#N)CCN(C(=O)N(C)C)c1ccccc1 | > 100 | 
Cc1ccc(S(=O)(=O)NC(=O)NCCc2ccccc2)cc1 | > 100 | 
Cc1c(Cl)c(=O)oc2cc(OC/C=C3\CCC(=O)O3)ccc12 | 95.5 | 33.8
O=C1CC(c2c(-c3ccccc3)[nH]c3ccccc23)C(=O)N1c1ccccc1 (configuration not stated) | > 100 | 
CCCCCCCCOCC(O)CO (configuration not stated) | > 100 | 
CCOc1ccccc1NC(=O)C(=O)C(/C(=N/N)C(=O)OC)c1nc2ccc([N+](=O)[O-])cc2[nH]c1=O (configuration not stated) | > 100 | 
C/C=C/C/C=C/[C@H](C)C[C@H](O)[C@@H]1C[C@@H]2O[C@H]2/C=C/[C@@H]2OC(C)(C)O[C@H]2/C=C/C[C@H](C)CC(=O)O1 | > 100 | 17.9
NC1C=NNC1=O (configuration not stated) | > 100 | 
O=C1C[C@H](COCc2ccccc2)NC(=O)C[C@H](COCc2ccccc2)NC(=O)C[C@H](COCc2ccccc2)N1 | > 100 | 
C1OC1CN1CCN(CC2CO2)CC1 (configuration not stated) | > 100 | 
CC1=NN(c2nc(N)nc(CSc3cc(Cl)c(C)cc3S(N)(=O)=O)n2)C(C)(C)C1 | > 10 | 
CC[C@@]1(OC(=O)CN(C)C)C(=O)OCc2c1cc1n(c2=O)Cc2cc3c(N)cccc3nc2-1 | 0.263 | 0.0403
N#Cc1ccc(-c2c(-c3ncn[nH]3)sc(N3CCOCC3)c2C#N)c(F)c1 | 7.02 | 0.362
Cc1ccccc1NC(=O)/C=N/O | > 100 | 
C/C(=N\NC(N)=S)c1ccc(C)c(C)c1 | > 100 | 
COC(=O)CN(CC(O)C(NC(C)=O)C(O)C=O)C(=O)OCc1ccccc1 (configuration not stated) | > 100 | 
O=C(c1ccco1)N(C(=S)N1CCN(c2ccccc2)CC1)C1CCCCC1 | > 100 | 
CNCCN[C@@H]1c2cc3c(cc2[C@@H](c2cc(OC)c(O)c(OC)c2)[C@H]2C(=O)OC[C@@H]21)OCO3 | 12.1 | 
O=c1[nH]nc(-c2ccccc2)n1/N=C/c1ccco1 | > 100 | 
CC(C)(C)OC(=O)N1CC(CCl)c2ccc(O)cc21 (configuration not stated) | 6.29 | 
CN1CCN(c2ccc(OC(F)(F)F)c(Nc3ncc4c(n3)-c3c(c(C(N)=O)nn3CCO)CC4)c2)CC1 | > 10 | 0.158
O=C1N2Cc3c4ccc5c3CN3C(=O)N6Cc7c(ccc(c7CN1C6(c1ccccc1)C23c1ccccc1)OCCOCCOc1cc(Br)c(Br)cc1OCCOCCO4)OCCOCCOc1cc(Br)c(Br)cc1OCCOCCO5 (configuration not stated) | > 100 | 
Clc1cc2ccccc2c2ccccc12 | > 100 | 
Cc1cc(-c2nnc(/C=C/c3ccc4c(c3)OCO4)o2)n[nH]1 | > 50 | 15.8
c1ccc(CN2CCc3[nH]c4ccccc4c3C2)cc1 | 49.8 | 

SMILES | TGI [µM] | GI50 [µM]
O=NN1C(c2ccccc2)C2CCCC(C2=O)C1c1ccccc1 (configuration not stated) | > 100 | 
CN1CC(c2ccccc2)C(O)(C2(c3ccccc3)CN(C)CC(c3ccccc3)C2=O)C(c2ccccc2)C1 (configuration not stated) | > 100 | 
O=S(=O)(NCCNc1nccc(-c2c(-c3ccc(F)c(O)c3)nc3sccn23)n1)c1ccc(Cl)cc1 | > 50 | 3.12
O=C1NC(N2CCCC(CO)C2)=N/C1=C\c1ccccc1 (configuration not stated) | > 100 | 
O=C1/C=C/[C@@H](O)[C@@H]2C[C@@H](O)C[C@H]2/C=C/CCC[C@H](CCc2ccc3ncccc3c2)O1 | > 100 | 0.288
CC(=O)NC1C(OC(C)C(=O)NC(C(=O)NC(CCC(=O)NCCCNC2c3ccccc3Nc3cccc([N+](=O)[O-])c32)C(N)=O)C(C)C)C(O)C(CO)OC1(C)OCc1ccccc1 (configuration not stated) | 4.83 | 
c1ccc2cc3c(cc2c1)Nc1c2ccccc2nc2cccc-3c12 | 3.02 | 
O=C1CNC(=O)/C(=C/c2c[nH]c3ccccc23)N1 | > 100 | 
N#C/C(c1nc2ccccc2[nH]1)=c1\s/c(=C(/N)O)c(=N)n1-c1ccccc1 | > 100 | 
Cc1cccc(NC(=O)O/N=C(\Cl)C(C)C)c1 | 31.2 | 
N#CCCN(CCC#N)c1ccc(C(N=Nc2ccc(Cl)cc2)=Nc2ccccc2)cc1 | 27.1 | 
CCC1C(C)C=NN1c1nc(N)nc(C(C#N)=Nc2ccc(N(C)C)cc2)n1 (configuration not stated) | 30.5 | 13.4
Cc1cc(C)c2c(n1)S(=O)(=O)N(CCCN1CCN(c3cccc(Cl)c3)CC1)/C(=C(\O)c1ccccc1)C2=O | > 100 | 
N#Cc1ccc(/C=C(/C(=O)c2ccccc2)c2ccccc2)cc1 | 28.8 | 
O=[N+]([O-])C1=Cc2cc(Cl)ccc2OC1c1cccc2ccccc12 (configuration not stated) | 3.37 | 
C=C1[C@H]2O[C@H]2[C@@H](OC(C)=O)[C@@]2(C)[C@@H](OC(C)=O)C[C@@H](OC(=O)CCC)[C@@](C)(O)[C@@H]2[C@@H](OC(C)=O)[C@]2(O)[C@@H](C)C(=O)O[C@H]2[C@H]1Cl | > 100 | 
O=c1c2ccccc2[nH]c2c(O)ccc(O)c12 | > 100 | 
OB(O)c1ccccc1C#Cc1ccccc1B(O)O | 39.9 | 
CCOC(=O)C1C=C2O[C@@H]3OC4(CCCCC4)O[C@@H]3C2C2C(=O)CCC(=O)[C@@]12C(=O)OC (some centres not stated) | > 100 | 
C/C(=N\NC(=O)C[N+](C)(C)C)c1sc(-c2cccnc2)nc1C | > 100 | 
CC(C)(C)c1cc2c(c(C(C)(C)C)c1O)CC(=O)O2 | > 100 | 
COc1ccc(C(C)c2cc(OC)c(OC)c(OC)c2)cc1 (configuration not stated) | > 50 | 0.282
COc1cc(-n2cc(-c3ccccc3)[nH]c2=O)cc(OC)c1OC | > 100 | 75.8
COc1ccc(NC(=S)NNC(=O)c2nsc3ccccc23)cc1 | > 100 | 
Cc1c2n(c3ccccc13)S(=O)(=O)c1ccccc1-2 | > 100 | 

SMILES | TGI [µM] | GI50 [µM]
O=C(O)c1nc2ccc(Cl)cc2[nH]c1=O | > 100 | 
CC(=O)Nc1ccc2c3c(cc(O)c2c1)N(C(=O)CCCCC(=O)N1CC(CCl)c2c1cc(O)c1cc(NC(C)=O)ccc21)CC3CCl (configuration not stated) | > 23 | 
Cc1ccc(Nc2cc(Cl)c([N+](=O)[O-])cc2[N+](=O)[O-])cc1 | 10.4 | 5.49
N#CC1=C(N)NC(=S)NC1c1ccc(-c2ccc(-c3nc4ccccc4o3)cc2)s1 (configuration not stated) | 38.2 | 12.6
COc1cccc(/C=C/c2nc3c(cnn3-c3ccccc3)c(=O)[nH]2)c1 | > 100 | > 100
Cc1ccc(S(=O)(=O)NC(=O)Nc2cccc(S(N)(=O)=O)c2)cc1 | > 100 | 
O=C(O)c1cc2ccccc2c2c3c(ccc12)OCO3 | 745 | 226
CC(C)=NNc1snnc1C(N)=O | > 100 | 
NCCCOc1cc2ccccc2cc1C(=O)Nc1ccc(Cl)cc1OC(=O)c1cc2ccccc2cc1OCCCN | 0.943 | 0.332
CCO/S(=N/S(=O)(=O)c1ccccc1)c1ccccc1[N+](=O)[O-] (configuration not stated) | > 100 | 
CN(C)CCNCc1ccc2c(-c3ccccc3)nc3cc(Cl)c(Cl)cc3n12 | 20.5 | 
C=C1C(=O)O[C@H]2C1C[C@@H](O)/C(C)=C/CC[C@@]1(C)O[C@H]21 (some centres not stated) | > 100 | 
CCOC(=O)C(=O)Nc1cc(Cl)c(Cl)cc1Cl | > 100 | 
O=C(O)C(O)(c1ccc(-c2ccccc2)cc1)c1ccc(-c2ccccc2)cc1 | > 100 | 
O=C(/C=C/c1ccc(OCc2ccccc2)cc1)NCc1ccc(C(=O)NCCc2c[nH]c3ccccc23)cc1 | > 100 | 
c1ccc2c(c1)nc1n2CSCC1 | > 100 | 
Cc1ccc(S(=O)(=O)N/N=C(\c2nc3ccc([N+](=O)[O-])cc3[nH]c2=O)C(O)c2ccc([N+](=O)[O-])cc2)cc1 (configuration not stated) | > 100 | 
O=c1c2cc(Br)cc(Br)c2nc(CCCl)n1-c1ccc(O)c([N+](=O)[O-])c1 | 31.7 | 
O=C(Nn1c(-c2cccs2)nc2ccc(I)cc2c1=O)c1ccccc1 | 83.7 | 
COc1ccc2c(c1)CC1COc3cc(OC)ccc3C1O2 (configuration not stated) | > 100 | 
O=C(O)Cc1ccc(Nc2nc3ccccc3nc2C(=O)O)cc1 | > 100 | 
O=[P+](O)c1ccccn1 | > 100 | 
CCCCCCCCCCCCCCCCCCNCc1ccc(Cl)cc1 | 15.2 | 3.11
Cc1coc2c1C(=O)C(=O)c1ccccc1-2 | 2.82 | 
CCCCC(C)/C=C/C(=O)C1=C(O)/C(=C/C(=O)O)OC1=O (configuration not stated) | > 100 | 

SMILES | TGI [µM] | GI50 [µM]
CC(C)(C)c1cc(C(=O)Nc2ccc(C(=O)NCCN)cc2)cc(C(C)(C)C)c1 | 7.02 | 2.23
Cc1ccc(/C=C/C(=N/NC(=O)N/N=C(/C=C/c2ccc(C)cc2)C(C)C)C(C)C)cc1 | > 10 | 
CNCC/C=C1\c2cc3c(cc2-c2c1c1cc(OC)c(OC)cc1c(=O)n2C)OCO3 | 1.65 | 
Cn1c(=O)c2sc3c4sc5c(=O)n(C)c6ccccc6c5c4sc3c2c2ccccc21 | > 100 | 
Nc1ccccc1C#C/C=C\C#CC#C/C=C\C#Cc1ccccc1N | > 100 | 17.7
O=C(CSCC(=O)N/N=C/c1ccccc1O)N/N=C\c1ccccc1O | > 100 | 1.69
COc1cccc2c1C1(O)C2CCCCCCCCCC12OCCCO2 (configuration not stated) | > 100 | 
CCOC(=O)c1nc2ccccc2n(CC)c1=O | > 100 | 
COc1ccc(C(=O)NC2=C(Cl)C(=O)c3ccccc3C2=O)cc1 | 20.7 | 
O=C(O)C1OC1C(=O)O (configuration not stated) | > 100 | 
Cc1ccc(S(=O)(=O)OCC#CCOS(=O)(=O)c2ccc(C)cc2)cc1 | 6.12 | 2.49
CC1=C(/C=C/C(=O)CC(=O)/C=C/C2=C(C)CCCC2(C)C)C(C)(C)CCC1 | > 100 | 34.2
CN(CCNC(=O)c1c[nH]c2c1ccc1ccccc12)CCNC(=O)c1c[nH]c2c1ccc1ccccc12 | 4.39 | 
O=C1C(=C2CCCC2)CCC1CN1CCCCC1 (configuration not stated) | > 100 | 
[N-]=[N+]=NC1(c2ccccc2)C(=O)C(Cl)=C(c2ccccc2)N(c2ccccc2)C1=O (configuration not stated) | > 100 | 
CN(CCO)Cc1ncccc1O | > 100 | 
CCN(CC)Cc1ccccc1CC(=O)N1c2ccccc2C(=O)Nc2cccnc21 | > 100 | 
O=[N+]([O-])c1ccc(-n2nc3ccc4c(no[n+]4[O-])c3[n+]2[O-])c([N+](=O)[O-])c1 | 7.91 | 
COCCOC(=O)NCn1cc(-c2ccccc2)nn1 | > 100 | 
CCc1c2cc(OC)c(OC)cc2cc2c3cc(OC)c(OC)cc3cc[n+]12 (tested in a mixture with another compound) | > 76.8 | 
Cc1c(O)c(OC2OC(CO)C(O)C(O)C2O)cc2c1CC[C@@H]1C2(C)C(=O)C[C@]2(C)[C@@H]([C@@](C)(O)C3CCC(C)(C)O3)[C@H](O)C[C@@]12C (some centres not stated) | > 100 | 
CCOC(=O)Nc1sc2c(c1C#N)CC(C)CC2 (configuration not stated) | > 100 | 
COc1ccc(/C=C2\C[C@H]3[C@@H]4CC=C5C[C@@H](OC(C)=O)CC[C@]5(C)[C@H]4CC[C@]3(C)\C2=N\O)cc1OC | > 100 | 
O=C(O)C1CC=CCC1C(=O)Nc1cccc(O)c1 (configuration not stated) | > 100 | 
c1csc(-c2nccc3c2[nH]c2ccccc23)c1 | 76.7 | 
